Laboratory results reported in the supplement of paper PMC10126150.
Sequences with one replicate were seen in a single cluster, so their values are uncertain.

Tested on: ATP
Assay: switch fluorescence ratio, 500 uM ATP over buffer (Cy3 cluster intensity, sum of 5 cycles each) (fold (ratio)); higher = stronger signal-on switching upon ATP binding; sequences stand for … in TCGTCGGCAGCGTCAGATGTGTATAAGAGACAGTTTTTTTTTTTTTTTTTTTTTTTTT…TC
Settings: aptamer strand: ATP DNA aptamer (quencher-CACCTGGGGGAGTATTGCGGAGGAAGG + anchor), 100 nM annealed; ATP concentration: 500 uM; one replicate
Method in brief: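 After annealing to 100 nM quencher-labelled ATP aptamer, Cy3-labelled switching-strand clusters on a modified Illumina MiSeq flow-cell were imaged in selection buffer. A second image followed after 15 min with 500 uM ATP at 22 °C, and five such buffer/ATP cycles were done, each separated by NaOH stripping and re-annealing. The fluorescence ratio, averaged per switch-domain sequence, is summed target-cycle over summed buffer-cycle Cy3 intensity per cluster, with clusters outside 100-1000 RFU excluded.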
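Also: ATP exposure 15 min at 22 °C before imaging.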

| Sequence | switch fluorescence ratio |
| --- | --- |
| TTTGACAAAA | 1.04 |
| AGGTCCGCTG | 1.02 |
| ACTTTCTCTT | 0.999 |
| CTTGGGTGCG | 0.973 |
| TAGCCCGTAT | 1.1 |
| GCTGGGGCTG | 0.933 |
| AATTCATGGA | 0.998 |
| CGCGGGTGTC | 1.04 |
| ATGGTGTTAC | 1.02 |
| AGTTTGAAGT | 0.995 |
| CACAGGAAC | 1.05 |
| GGTAGGCCCC | 0.953 |
| CCAAAGCTCT | 1.59 |
| CTATTAAAAG | 1.11 |
| TTTCACTCAG | 0.99 |
| TACATATACA | 1.1 |
| AGAGAAATGG | 0.995 |
| ATGTAGGC | 1.01 |
| GTTGTTAGAT | 1.02 |
| TCGGGGGAT | 1.01 |
| GTCTACTGGA | 1.04 |
| CGGAACGGGT | 0.99 |
| ACGATTTCTG | 1.02 |
| TCTAATTGGC | 1.08 |
| GCCACAAGGC | 0.981 |
| CAGTGTGCA | 1.11 |

| Sequence | switch fluorescence ratio |
| --- | --- |
| CCTAGAGAAA | 1.02 |
| GTCAATGTTA | 0.973 |
| ATCTCTGCAT | 2.99 |
| AAAGAACGG | 1.04 |
| GTGAGAGTAT | 0.989 |
| CGGCTAGGTG | 1.95 |
| GGCTGTTAGT | 0.946 |
| CAGGCGAATT | 1.04 |
| ACGCCTTTAC | 4 |
| TTGGCCTGGC | 1.04 |
| ACTCATGCGA | 2.6 |
| TCACCAAAAC | 1.17 |
| GCTGCAGCTT | 0.983 |
| TTATTTCT | 1.01 |
| AAAAAGGCTG | 0.899 |
| CTATTGTGCA | 1.02 |
| TCGGGAAGGC | 1.1 |
| TGGGCATTGT | 0.952 |
| TAAAGAAGTA | 1.01 |
| AAGGTCAGC | 1.02 |
| GGGGGAGC | 0.961 |
| TAAGCAGATC | 1.08 |
| CAGTAACTAG | 1.03 |
| TATAATAGGG | 0.957 |
| ATGCGGCGCT | 1.02 |
| AATCGCAACA | 1.22 |

| Sequence | switch fluorescence ratio |
| --- | --- |
| AAGATTTCC | 1.02 |
| TGGGGGAGAC | 0.971 |
| ACCGACAGGC | 1.03 |
| CAACATTCTT | 0.981 |
| TGCGTCCCTG | 0.979 |
| CAATGATGCG | 0.964 |
| CCGGGGAGCG | 0.983 |
| GGTTGTCCA | 0.951 |
| AAAGGTCGAA | 0.994 |
| ATGGACAGAA | 1 |
| GAGATGAAAA | 1 |
| CAATGAAAGG | 0.984 |
| AGAGCTGATA | 1.03 |
| TCCCACAGAT | 1.06 |
| AGTGCTGGTG | 0.998 |
| CATTATGAG | 0.985 |
| GTTCAAAGAA | 0.96 |
| ATAGCTGTAC | 3.48 |
| GGTCAGCGTG | 0.986 |
| GGTCTCTCTG | 1.06 |
| GGGATTGTAT | 0.965 |
| TTTACCACGA | 1.06 |
| GAGGTATTCT | 1.02 |
| ACCAGATTTC | 1.05 |
| CCCGGTTGA | 1.03 |
| TTCTTAAAGA | 1.04 |

| Sequence | switch fluorescence ratio |
| --- | --- |
| TGGAAAAGAG | 1.06 |
| TAATAGGCG | 0.927 |
| GGATCCCTTA | 1.02 |
| GTTTGGACGT | 0.99 |
| AGGCCACGCA | 1.18 |
| ACACCAGTTC | 1.12 |
| TGAGTATTCA | 0.986 |
| CGGGTGTGT | 1.05 |
| TGCATGTCGG | 1 |
| CTCGCCGCTC | 1.45 |
| CAACCGCCAC | 2.04 |
| TTACCGTCGG | 1.03 |
| TTTGACCTCA | 0.99 |
| GGAGGGTGTG | 1.02 |
| TACAATAGAC | 1.06 |
| AACTGATACG | 1.07 |
| GCGGAGTGA | 1.07 |
| ATTTAAAACA | 1.04 |
| TTGTGCAGAT | 0.976 |
| CAATGTATAT | 0.965 |
| ACAGCTAGGC | 1.1 |
| GATCGCGTTG | 1.02 |
| CTAAGCTG | 0.99 |
| TGCCGCCAAT | 1.86 |
| CCTAGTCGG | 0.983 |
| CGCACTAACT | 1.88 |

| Sequence | switch fluorescence ratio |
| --- | --- |
| ACTGGCAATT | 1.38 |
| TTATCTGGT | 1.11 |
| ACGCGGAATA | 1.09 |
| TTAACTGTAT | 1.08 |
| CTCTCAACAG | 1.06 |
| CTTATGAGAT | 0.983 |
| TTTGTCCAGA | 0.991 |
| TTGAAAGTCT | 0.958 |
| GATTTAGAAG | 0.998 |
| TTCGTGGAA | 1.05 |
| TCATTGCCAT | 0.982 |
| CTCAATGATA | 1.03 |
| CAGTTTTTCA | 0.976 |
| TCTAGTCAG | 1.03 |
| AGGTGGTAT | 0.977 |
| AAGCCCAGAG | 1.18 |
| CTCGATCGTT | 0.997 |
| CTTGTGAACA | 0.985 |
| AGCGATTTGT | 1.04 |
| CAGGAGAGGC | 0.683 |
| AGTGTATGCC | 1.06 |
| GGAGGAGCGG | 0.988 |
| GAGAATCGG | 0.941 |
| AGGGCTCTT | 0.943 |
| AACATGGTAG | 0.989 |
| ATACCCCTTG | 1.05 |

| Sequence | switch fluorescence ratio |
| --- | --- |
| CAGGGGGCAA | 2.26 |
| GTAAATGTTA | 0.981 |
| TTAAATGCTT | 0.997 |
| GCAGGGGTGG | 1.12 |
| ATTATATTG | 1.02 |
| CACAATGTAT | 1.05 |
| CTCGATCCAT | 0.952 |
| TTATCCAACC | 0.967 |
| AGTAGGGTAA | 0.971 |
| CGTTGGGAC | 1.02 |
| CGATTCTGTA | 1.01 |
| TTGCCACCTG | 1.01 |
| TTTCCCCGTC | 1.11 |
| AAGCTGGATT | 0.947 |
| GCGGTAGTGA | 1.01 |
| CCAGTTTTA | 0.966 |
| ACCTGGCTC | 1.26 |
| GCGTTGAGGC | 0.951 |
| TTGAAAGGCA | 1 |
| TATTACATGC | 1.02 |
| GAGTCAACTT | 0.958 |
| AAATAATCTC | 1.02 |
| TTTCAGAAGT | 1.13 |
| CAGTCACAGC | 1.06 |
| TTGTAGTCAT | 1.07 |
| TTTTCGAACG | 0.995 |

| Sequence | switch fluorescence ratio |
| --- | --- |
| TCGGGTCTCC | 0.979 |
| TCATTGTACT | 1.04 |
| TGGTTGTGCA | 0.971 |
| CATGCGCGAA | 1.72 |
| GCTACCGGAT | 0.963 |
| CCGCTTGGCC | 2.03 |
| AGGTTTAGAT | 1.03 |
| AGTATAAGGC | 0.982 |
| CTATACGAGC | 1.01 |
| CTAGTACAGA | 0.98 |
| ATACATTTAT | 0.989 |
| TCGCCCTGTA | 1.02 |
| AGTCTACCAG | 1.02 |
| AACAGAGAG | 0.961 |
| ATCGCGTACG | 1.05 |
| TGGTCATTTT | 1.02 |
| GATTGCATG | 1.02 |
| TTAGTGGGTC | 0.996 |
| CAAATCAAGC | 0.981 |
| CCGCAGTAAG | 6.89 |
| TAATATGAT | 0.981 |
| ATCCTTGTCA | 0.985 |
| GCGCTACTTA | 1.08 |
| CGTTTGATGA | 1.02 |
| CAACCCTTGC | 1.71 |
| AACGGGAAAC | 1.05 |

| Sequence | switch fluorescence ratio |
| --- | --- |
| GGAGCTAGAA | 1.49 |
| TCCAGAATCT | 1.01 |
| AGGAAGGTGC | 1.51 |
| GCTATGACGC | 1.06 |
| AATCCACTTC | 1.03 |
| GAGCTTGGAC | 1.03 |
| TGATAGCAGC | 1.05 |
| GCTAGGTAAT | 1.06 |
| TAACTACATT | 1.04 |
| GTTTGAAAGG | 0.982 |
| GGCGCGGGTT | 0.967 |
| CTTGAGCGCG | 1.03 |
| TAATGATAGG | 0.988 |
| GTCACACGCG | 0.995 |
| TCGCTGGAGA | 1.06 |
| GGTAGTATTA | 1 |
| GTGATTGTGG | 0.982 |
| GTGAGTCCGT | 1.03 |
| GTAATACGCG | 1.03 |
